{"source": "the supplement of paper PMC3334620", "note": "Whole data set: some 33,000 sequences, median “E-score (-0.5 to 0.5)” near -0.017, cut for the highest 2% near 0.3. Some of the results follow."}
{"target": "T1, Sut1 (UniProt P53032)", "T1 sequence": "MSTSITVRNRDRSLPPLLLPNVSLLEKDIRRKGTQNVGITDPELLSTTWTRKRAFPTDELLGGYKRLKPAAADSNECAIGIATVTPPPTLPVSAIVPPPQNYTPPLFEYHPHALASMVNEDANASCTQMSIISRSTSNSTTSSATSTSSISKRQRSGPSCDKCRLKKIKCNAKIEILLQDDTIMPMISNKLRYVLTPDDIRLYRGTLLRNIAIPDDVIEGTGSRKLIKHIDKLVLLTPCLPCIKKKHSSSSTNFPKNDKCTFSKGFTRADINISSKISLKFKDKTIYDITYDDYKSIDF", "test": "PBM E-score (8-mer binding enrichment) (E-score (-0.5 to 0.5)); higher = stronger / more preferred TF binding; most listed sequences are background and not binding sites", "settings": "protein concentration: 200 nM; construct: GST-full length", "summary_of_the_method": "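Yeast transcription factors carrying a GST tag, as full-length proteins or DNA-binding domains, were produced by PURExpress in vitro transcription/translation. About 100-200 nM protein was applied to universal all-10-mer Agilent arrays, double-stranded by primer extension on fresh or once-stripped slides. Bound protein was detected with fluorescent anti-GST, and scans were normalised with masliner. The Universal PBM Analysis Suite gave each ungapped eight-base word, pooled with its reverse complement, an E-score, a modified Wilcoxon-Mann-Whitney statistic.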"}
{"sequence": "GATAAAAA", "PBM E-score": 0.263}
{"sequence": "CCCGTCGA", "PBM E-score": -0.208}
{"sequence": "ACTGCTAG", "PBM E-score": -0.173}
{"sequence": "AGGGGGGG", "PBM E-score": -0.464}
{"sequence": "AGACTTTG", "PBM E-score": -0.115}
{"sequence": "CCAAGGAA", "PBM E-score": -0.0992}
{"sequence": "AATTTTGA", "PBM E-score": 0.206}
{"sequence": "GATCAGTA", "PBM E-score": 0.109}
{"sequence": "ACGCCGGA", "PBM E-score": 0.239}
{"sequence": "ACGGAATA", "PBM E-score": 0.202}
{"sequence": "AAACACCC", "PBM E-score": 0.063}
{"sequence": "CCCGTCGC", "PBM E-score": -0.153}
{"sequence": "AGAGCTTG", "PBM E-score": -0.0909}
{"sequence": "AGCCCGTA", "PBM E-score": -0.126}
{"sequence": "ACGAAGAA", "PBM E-score": 0.201}
{"sequence": "ATTCACAG", "PBM E-score": -0.0815}
{"sequence": "ATGAGAGG", "PBM E-score": -0.0408}
{"sequence": "GCCACTCC", "PBM E-score": 0.0702}
{"sequence": "AACGTTTA", "PBM E-score": -0.0621}
{"sequence": "GTACGATA", "PBM E-score": -0.0185}
{"sequence": "AAACATGT", "PBM E-score": 0.14}
{"sequence": "CGTCATAA", "PBM E-score": 0.134}
{"sequence": "CCAACTGA", "PBM E-score": -0.08}
{"sequence": "GTTGCACA", "PBM E-score": -0.176}
{"sequence": "AAATCCAC", "PBM E-score": 0.0815}
{"sequence": "CAAAATTA", "PBM E-score": 0.241}
{"sequence": "CTGCTTCA", "PBM E-score": -0.299}
{"sequence": "CCCCAAGG", "PBM E-score": -0.296}
{"sequence": "AACCGGGT", "PBM E-score": -0.182}
{"sequence": "ACACAGAA", "PBM E-score": 0.0759}
{"sequence": "CAGGTCAG", "PBM E-score": -0.204}
{"sequence": "GCAGGTCA", "PBM E-score": -0.167}
{"sequence": "GGAAACGA", "PBM E-score": 0.0755}
{"sequence": "AAGCAGCC", "PBM E-score": -0.105}
{"sequence": "AGAATTAA", "PBM E-score": 0.141}
{"sequence": "TCCGCCGA", "PBM E-score": 0.134}
{"sequence": "AACCGGTT", "PBM E-score": 0.118}
{"sequence": "AATGCCAT", "PBM E-score": 0.12}
{"sequence": "TCATATGA", "PBM E-score": 0.266}
{"sequence": "ACGCTCTC", "PBM E-score": -0.0447}
{"sequence": "CTAACGTA", "PBM E-score": -0.00176}
{"sequence": "GGTATCTA", "PBM E-score": 0.061}
{"sequence": "GTAATTAA", "PBM E-score": 0.161}
{"sequence": "AGAGTGAC", "PBM E-score": -0.2}
{"sequence": "CTATGTCA", "PBM E-score": -0.0412}
{"sequence": "ACTATTGG", "PBM E-score": -0.124}
{"sequence": "CCTAATGA", "PBM E-score": -0.0128}
{"sequence": "CGTTGAGA", "PBM E-score": 0.128}
{"sequence": "AGGCTTTC", "PBM E-score": 0.108}
{"sequence": "ACAACTTG", "PBM E-score": -0.0793}
{"sequence": "ACACCACA", "PBM E-score": -0.0743}
{"sequence": "ACCCTTGC", "PBM E-score": -0.271}
{"sequence": "GATATAAA", "PBM E-score": 0.117}
{"sequence": "GATTATGC", "PBM E-score": 0.0186}
{"sequence": "ACGGCAAC", "PBM E-score": -0.113}
{"sequence": "CCCGAGCG", "PBM E-score": 0.0794}
{"sequence": "AAGAACCT", "PBM E-score": 0.00916}
{"sequence": "ATGGAATG", "PBM E-score": 0.115}
{"sequence": "AACGCACC", "PBM E-score": -0.164}
{"sequence": "ACTGTATC", "PBM E-score": -0.0186}
{"sequence": "ATACAGTC", "PBM E-score": -0.043}
{"sequence": "ATCTTCGC", "PBM E-score": -0.00336}
{"sequence": "GGAAATAA", "PBM E-score": 0.24}
{"sequence": "AAAAGGGG", "PBM E-score": -0.146}
{"sequence": "CGGGTTAA", "PBM E-score": -0.0456}
{"sequence": "CGCCATCA", "PBM E-score": -0.246}
{"sequence": "GGGGTGTA", "PBM E-score": -0.327}
{"sequence": "CATGACGG", "PBM E-score": -0.123}
{"sequence": "AGCACCTA", "PBM E-score": -0.171}
{"sequence": "CCCCGGCA", "PBM E-score": 0.0139}
{"sequence": "CATTACAG", "PBM E-score": -0.142}
{"sequence": "AGGCATAG", "PBM E-score": -0.0231}
{"sequence": "TCGTAGAA", "PBM E-score": 0.0134}
{"sequence": "ATAGGTGC", "PBM E-score": -0.154}
{"sequence": "CGAGATAA", "PBM E-score": 0.2}
{"sequence": "ATAGCGTG", "PBM E-score": -0.123}
{"sequence": "ATTGATTC", "PBM E-score": 0.237}
{"sequence": "ACACATGA", "PBM E-score": 0.0583}
{"sequence": "ACCGTCTG", "PBM E-score": -0.182}
{"sequence": "AGGATAGC", "PBM E-score": 0.0235}
{"sequence": "TCAACTGA", "PBM E-score": 0.00098}
{"sequence": "AAATGGTG", "PBM E-score": 0.0677}
{"sequence": "AACAGAAC", "PBM E-score": 0.0274}
{"sequence": "TAGAAGGA", "PBM E-score": -0.102}
{"sequence": "AGGCTCTG", "PBM E-score": -0.174}
{"sequence": "CACCTTAC", "PBM E-score": -0.134}
{"sequence": "CCGGGCCG", "PBM E-score": 0.155}
{"sequence": "TATCCAGA", "PBM E-score": -0.0189}
{"sequence": "CCACTGAA", "PBM E-score": 0.122}
{"sequence": "AGCCGACC", "PBM E-score": -0.261}
{"sequence": "CATTAGCC", "PBM E-score": -0.142}
{"sequence": "GCTCTCTA", "PBM E-score": -0.093}
{"sequence": "GCGTAAAA", "PBM E-score": 0.0981}
{"sequence": "ATGCGATG", "PBM E-score": 0.0151}
{"sequence": "ACGAGATG", "PBM E-score": -0.168}
{"sequence": "CGTTGAAA", "PBM E-score": 0.00116}
{"sequence": "CTTTTAGC", "PBM E-score": 0.0399}
{"sequence": "TCACCAAA", "PBM E-score": 0.0811}
{"sequence": "AACTCTAA", "PBM E-score": 0.217}
{"sequence": "GGATGATA", "PBM E-score": 0.0477}
{"sequence": "CTGGCCAG", "PBM E-score": -0.348}
{"sequence": "GCGAGCAA", "PBM E-score": 0.0413}
{"sequence": "CTCTAAAC", "PBM E-score": -0.0466}
{"sequence": "CGCCGCAC", "PBM E-score": -0.0969}
{"sequence": "CGACTGTC", "PBM E-score": -0.166}
{"sequence": "AAGCCTGT", "PBM E-score": -0.00955}
{"sequence": "CGCAAATC", "PBM E-score": -0.0911}
{"sequence": "CTGCCACA", "PBM E-score": -0.22}
{"sequence": "AGCACAAG", "PBM E-score": 0.0739}
{"sequence": "ACGCTCAA", "PBM E-score": 0.0487}
{"sequence": "CGCGCCCG", "PBM E-score": -0.254}
{"sequence": "AGATCCGA", "PBM E-score": 0.145}
{"sequence": "ATTTCCGC", "PBM E-score": 0.156}
{"sequence": "CGAGAGCA", "PBM E-score": -0.0395}
{"sequence": "CTTGAAAA", "PBM E-score": 0.0874}
{"sequence": "AACCGGTC", "PBM E-score": 0.0286}
{"sequence": "AGACCGGA", "PBM E-score": 0.277}
{"sequence": "ATCCCCTA", "PBM E-score": -0.254}
{"sequence": "AATTTCCC", "PBM E-score": 0.039}
{"sequence": "GTTACCTA", "PBM E-score": -0.00806}
{"sequence": "CAGGCTAA", "PBM E-score": -0.0895}
{"sequence": "CGAAAACA", "PBM E-score": 0.123}
{"sequence": "CTACTAAG", "PBM E-score": -0.0294}
{"sequence": "GTAGTCTA", "PBM E-score": 0.00017}
{"sequence": "CGGTACTA", "PBM E-score": 0.00756}
{"sequence": "TGCATACA", "PBM E-score": 0.11}
{"sequence": "TAAATTGA", "PBM E-score": 0.262}
{"sequence": "ATCCCGAA", "PBM E-score": 0.111}
{"sequence": "AGAGCATG", "PBM E-score": -0.211}
{"sequence": "AATGTTCT", "PBM E-score": 0.108}
{"sequence": "AGTAAACT", "PBM E-score": 0.0487}
{"sequence": "AGCGCGTA", "PBM E-score": -0.0462}
{"sequence": "GCGGACGA", "PBM E-score": 0.0485}
{"sequence": "ACCTGAAG", "PBM E-score": 0.0289}
{"sequence": "AAATAGGT", "PBM E-score": 0.0548}
{"sequence": "AAGTCATG", "PBM E-score": 0.0221}
{"sequence": "ACACATTC", "PBM E-score": 0.116}
{"sequence": "AAATGAGA", "PBM E-score": 0.0241}
{"sequence": "CACTGAGA", "PBM E-score": -0.272}
{"sequence": "CGGCAGAG", "PBM E-score": -0.194}
{"sequence": "AATCGTTG", "PBM E-score": 0.0316}
{"sequence": "AGAGGGAA", "PBM E-score": -0.286}
{"sequence": "CCGCAACC", "PBM E-score": 0.0294}
{"sequence": "CCGGAATC", "PBM E-score": 0.326}
{"sequence": "CGGGGCAC", "PBM E-score": -0.18}
{"sequence": "CTACGGCC", "PBM E-score": -0.308}
{"sequence": "TGAATGCA", "PBM E-score": 0.154}
{"sequence": "CGTTCCCC", "PBM E-score": -0.118}
{"sequence": "GGTAACGA", "PBM E-score": -0.111}
{"sequence": "ACGTATGA", "PBM E-score": 0.175}
{"sequence": "ACGATTTA", "PBM E-score": 0.215}
{"sequence": "GGAATCCA", "PBM E-score": 0.0206}
{"sequence": "AATATCAT", "PBM E-score": 0.273}
{"sequence": "ACTCAACT", "PBM E-score": 0.218}
{"sequence": "TCCACAAA", "PBM E-score": 0.095}
{"sequence": "AATCCTAA", "PBM E-score": -0.0139}
{"sequence": "GAAAGCTA", "PBM E-score": -0.139}
{"sequence": "GATTTTCA", "PBM E-score": 0.136}
{"sequence": "AGGGGTAG", "PBM E-score": -0.262}
{"sequence": "AGACAGTA", "PBM E-score": 0.0419}
{"sequence": "AACGTCTG", "PBM E-score": -0.155}
{"sequence": "CATTCGAC", "PBM E-score": 0.0276}
{"sequence": "CCGCAGGC", "PBM E-score": -0.079}
{"sequence": "ACCCTACA", "PBM E-score": 0.024}
{"sequence": "AATTGGGC", "PBM E-score": -0.0355}
{"sequence": "CCTAGTGC", "PBM E-score": -0.117}
{"sequence": "AAGCAGAA", "PBM E-score": 0.185}
{"sequence": "ACCCCTCC", "PBM E-score": -0.281}
{"sequence": "AAGCCACT", "PBM E-score": -0.0761}
{"sequence": "CTAGCAAA", "PBM E-score": 0.124}
{"sequence": "AAGGAGAT", "PBM E-score": 0.137}
{"sequence": "ACGAGACT", "PBM E-score": -0.153}
